# Test results as given in PubChem BioAssay AID1159614 (National Center for Advancing Translational Sciences (NCATS), 2016).
# The whole screen tested about 45,000 compounds, of which about 65 (0.1%) were called active. Calls follow the shape of the dose curve; as a rule, active = well fitted activation curve with a large enough effect; inconclusive = small, poorly fitted or top-dose-only effect; inactive = no such curve, though single readings can be large or run the other way. The list shows a part of the results.
# Molecular target: Galactocerebrosidase (Homo sapiens) (UniProt P54803)
# Sequence of UniProt P54803 (P54803 whole entry, looked up): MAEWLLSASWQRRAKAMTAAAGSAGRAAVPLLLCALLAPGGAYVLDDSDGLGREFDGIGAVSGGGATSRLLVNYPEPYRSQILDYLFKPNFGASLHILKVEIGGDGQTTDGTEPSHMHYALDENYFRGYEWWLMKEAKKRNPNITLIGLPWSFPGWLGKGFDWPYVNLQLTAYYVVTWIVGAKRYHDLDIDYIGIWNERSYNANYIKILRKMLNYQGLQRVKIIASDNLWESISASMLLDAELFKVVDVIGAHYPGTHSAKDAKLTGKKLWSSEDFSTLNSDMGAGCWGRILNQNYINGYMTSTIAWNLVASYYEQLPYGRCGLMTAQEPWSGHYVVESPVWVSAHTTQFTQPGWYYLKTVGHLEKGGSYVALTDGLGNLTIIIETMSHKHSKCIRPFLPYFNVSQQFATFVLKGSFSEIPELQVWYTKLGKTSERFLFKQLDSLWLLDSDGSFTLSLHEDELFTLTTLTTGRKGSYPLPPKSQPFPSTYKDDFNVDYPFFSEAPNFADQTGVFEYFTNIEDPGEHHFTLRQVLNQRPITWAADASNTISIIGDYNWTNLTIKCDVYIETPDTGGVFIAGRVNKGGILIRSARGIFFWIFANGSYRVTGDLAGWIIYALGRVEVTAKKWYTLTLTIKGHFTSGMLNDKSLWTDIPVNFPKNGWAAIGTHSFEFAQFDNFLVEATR
# Assay: A Novel Cell-Based Assay to Identify Small Molecules for B -Galactocerebrosidase; also: 0% is about no effect; nearly all actives have a fitted effect of over 65% in size
# Details: 145M-Twi-hGALC-G270D cells (Twitcher mouse brain line with human GALC G270D), HMU-beta-Gal fluorescence, 48 h; series mostly up to 57.5 µM; activation: at the top concentration
# Procedure, shortened: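 Mutant human GALC (G270D), stably expressed in a Twitcher mouse brain cell line lacking endogenous GALC, is measured in live-treated cells via 6-hexadecanoylamino-4-methylumbelliferyl-β-galactoside hydrolysis (0.1 mM final, pH 5.2) with fluorescent detection.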
row,Compound,activation
1,Cc1ccc(-c2nnc(Nc3ccc(Br)cc3)c3ccccc23)cc1S(=O)(=O)N1CCOCC1,inactive: -7.56%
2,CCN(CC)S(=O)(=O)c1ccc2c(c1)N(CC(=O)NCCc1ccc(OC)c(OC)c1)C(=O)CO2,inactive: -21.5%
3,CCOc1ccccc1NC(=O)c1cn(C2CCCC2)c(=O)c2c1c1ccccc1n2C,inactive: -24.1%
4,COc1ccccc1NC(=O)C1=C(C)Nc2nc(SCc3ccccc3)nn2C1c1ccccn1 (configuration not stated),inactive: -20.3%
5,COc1ccccc1CNc1nc2nc(C)c(Cl)c(C)n2n1,inactive: 1.77%
6,COC(=O)c1c(NC(=O)c2cccc(OC)c2)sc2c1CCC(C(C)(C)C)C2 (configuration not stated),inactive: 5.9%
7,CC1CCCN(S(=O)(=O)c2cc3c(cc2Cl)NC(=O)CO3)C1 (configuration not stated),inactive: -4.26%
8,Cc1nnc(NC(=O)CSc2nccn2-c2cccc(Cl)c2)s1,inactive: -20.3%
9,Cc1nc2c(c(C)c1CCC(=O)Nc1cccc(C(F)(F)F)c1)c(=O)n(C)c(=O)n2C,inactive: -18%
10,COc1ccc(-c2cc(=O)n3[nH]cnc3n2)cc1,inactive: -15%
11,O=C(CCC(=O)N1CC2CCCN2c2ccccc21)NCc1ccccc1Cl (configuration not stated),inactive: -19.9%
12,COc1ccc(N2CCN(c3ccc(-c4nc(-c5ccccc5C)no4)cc3[N+](=O)[O-])CC2)cc1,inactive: -10.9%
13,Cc1ccc(NC(=O)N2CCC(N3CCN(Cc4ccccc4)C(=O)C3=O)CC2)cc1Cl,inactive: 0.343%
14,Cc1cccc(-c2nc(SCC(=O)Nc3cc(C)on3)c3c(=O)n(C)c(=O)n(C)c3n2)c1,inactive: -8.34%
15,COCCCNC(=O)c1ccc2c(c1)N=C(C)c1c(C)ccc(C)c1S2,inactive: 16.8%
16,Cc1cn2c(=O)cc(COc3ccc(C(C)(C)C)cc3)nc2s1,inactive: -24.4%
17,CC(C)CCn1c(SCc2c(F)cccc2Cl)nc2ccsc2c1=O,inactive: -4.38%
18,CC(C)NC(=O)CCSc1nc(-c2ccc3c(c2)OCO3)cc(C(F)(F)F)n1,inactive: -19.9%
19,Cc1cccc(C)c1NC(=O)CSc1nc(-c2cccs2)cc(C(F)(F)F)n1,inactive: -15.3%
20,CN(c1nccc(=O)[nH]1)C1CCN(c2nc3ccccc3n2Cc2ccc(F)cc2)CC1,inactive: -11.6%
21,CCOc1ccccc1N(CC)C(=O)c1ccc2c(=O)n3c(nc2c1)CCCCC3,inactive: -30.6%
22,O=C(Nc1ccc(F)c(Cl)c1)C1CCCN(S(=O)(=O)c2cccc3nsnc23)C1 (configuration not stated),inactive: -16.4%
23,CCOc1ccc2nc(NC(=O)c3nc(SC(C)C)ncc3Cl)sc2c1,inactive: -0.499%
24,CC1CCN(C(=O)Cn2c(=O)n(-c3ccc(Cl)cc3)c(=O)c3c4c(sc32)CCC4)CC1,inactive: -14.9%
25,C[N+](C)(C)CC(=O)O,inactive: -11.9%
26,CCc1cccc2c(-c3ccccc3)nc(SCC(=O)Nc3ccc(OC)cc3)nc12,inactive: -1.26%
27,N#Cc1ccccc1Cn1c(SCC(=O)NCc2ccccc2)nc2ccccc21,inactive: -16.8%
